# Test results: the supplement of paper PMC8792480
# Where a name gives a salt, the structure may show the parent alone. The list shows a part of the results. Most values come without repeats; read them as rough.
# Key:
# NCI-H460 [1] = experiment: cell-surface PD-L1 MFI ratio relative to radiation alone (isotype-subtracted); higher = higher PD-L1 surface expression; settings: inducer: radiation 8 Gy; 10 µM; 24 h
# Description: (§1)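 A549 and H460 NSCLC cells were treated with each library drug at 10 uM, then with radiation (8 Gy) or cisplatin (4 uM), and incubated for 24 h. Cell-surface PD-L1 was measured by flow cytometry as an MFI ratio: (MFI drug+inducer - MFI isotype)/(MFI inducer alone - MFI isotype). Hits were defined as ratio < 0.75.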
# A549 = experiment: cell-surface PD-L1 MFI ratio relative to cisplatin alone (isotype-subtracted); higher = higher PD-L1 surface expression; settings: inducer: cisplatin 4 uM; 10 µM; 24 h
# Description: as §1
# NCI-H460 [2] = experiment: as above; settings: inducer: cisplatin 4 uM; 10 µM; 24 h
# Description: as §1
# 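For cell-surface PD-L1 MFI ratio relative to radiation alone (isotype-subtracted) in this document: surface PD-L1 on NSCLC cells stained with a PE-labelled anti-human PD-L1 antibody before flow cytometry, screening a library of roughly two hundred mostly kinase and epigenetic inhibitors.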
SMILES,cell-surface PD-L1 MFI ratio (NCI-H460 [1]),cell-surface PD-L1 MFI ratio (A549),cell-surface PD-L1 MFI ratio (NCI-H460 [2])
N#Cc1ccc2ncnc(NCCc3ccccc3)c2c1 [Senexin A],inactive: 1.05,active: 0.641,inactive: 0.888
Cc1ccc(S(=O)(=O)OCC(=O)Nc2ccc(C(=O)O)c(O)c2)cc1,inactive: 1.25,active: 0.636,inactive: 1.13
CCN(c1cc(-c2ccc(CN3CCOCC3)cc2)cc(C(=O)NCc2c(C)cc(C)[nH]c2=O)c1C)C1CCOCC1 [Tazemetostat (EPZ-6438)],inactive: 0.839,active: 0.527,inactive: 0.968
Cc1cc(O)c(-c2ccc([C@@H](C)CN)cc2)c2c1[nH]c(=O)c1sccc12 [OTS514 hydrochloride],active: 0.499,inactive: 1.59,inactive: 1.02
CC(C)(C(=O)NCC(F)(F)C(F)(F)F)C(=O)N[C@@H]1C(=O)Nc2ccccc2-c2ccccc21,inactive: 1.29,active: 0.662,inactive: 1.07
N[C@@H]1CCCN(c2c(/C=C3\SC(=O)NC3=O)cccc2-c2ccccc2)C1,inactive: 1.04,inactive: 1.41,inactive: 1.33
CC(C)n1c(=O)n(C)c2cnc3cc(F)c(-c4ccc(OCCCN5CCCCC5)nc4)cc3c21,active: 0.732,inactive: 1.1,inactive: 0.944
CC[C@H](NC(=O)[C@H](C)NC)C(=O)N1C[C@@H](O)C[C@H]1Cc1c(-c2[nH]c3cc(F)ccc3c2C[C@@H]2C[C@H](O)CN2C(=O)[C@H](CC)NC(=O)[C@H](C)NC)[nH]c2cc(F)ccc12 [Birinapant],inactive: 1.82,active: 0.661,inactive: 1.15
